# According to the supplement of paper PMC10037445:
# In all, about 2,900 compounds were measured (“NF-kB SEAP reporter activity, fold change vs agonist alone”: median about 0.99, highest 2% from about 2.6 on). The list shows a part of the results.
# Assays:
# [1] = tested on: RAW-Dual; assay: NF-kB SEAP reporter activity, fold change vs agonist alone; higher = enhanced NF-kB activity
# Summary of the method: (§1)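 RAW-Dual macrophages (50,000 cells/well in DMEM, 384-well plates) received 50 nL of library stock by pin tool, then a PRR agonist 1 h later, and were kept at 37 °C, 5% CO2. After 20 hours, supernatant was read for IRF by QuantiLuc luminescence and for NF-κB by QuantiBlue absorbance at 620 nm. Reporter activity is fold change over agonist-alone wells. Cytotoxic wells had IncuCyte confluency below 70% of agonist controls in both mask sets.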
# [2] = tested on: RAW-Dual; assay: NF-kB SEAP reporter activity, fold change vs agonist alone; cytotoxicity flag (confluency mask): not cytotoxic; higher = enhanced NF-kB activity
# Summary of the method: as §1
# [3] = tested on: RAW-Dual; assay: NF-kB SEAP reporter activity, fold change vs agonist alone; cytotoxicity flag (confluency mask): cytotoxic (confluency <70% of control); higher = enhanced NF-kB activity
# Summary of the method: as §1
# [4] = library stock concentration (final ~1000-fold dilution): 10 mM, cytotoxicity flag (confluency mask): not cytotoxic, agonist: Imiquimod (TLR7) […]
# [5] = library stock concentration (final ~1000-fold dilution): 10 mM, cytotoxicity flag (confluency mask): not cytotoxic, agonist: MPLA (TLR4) […]
# [6] = agonist: ODN 1826 (TLR9) 0.5 ug/mL
# [7] = agonist: Pam2CSK4 (TLR2/6) 0.1 ug/mL
# [8] = agonist: Pam3CSK4 (TLR2/1) 0.1 ug/mL
smiles,measurement,setting,value
Cc1cc(Nc2cc(N3CCN(C)CC3)nc(/C=C/c3ccccc3)n2)n[nH]1.O=C(O)C(O)C(O)C(=O)O,NF-kB SEAP reporter activity,[1]; [4],0.89
same,NF-kB SEAP reporter activity,[1]; [5],0.85
Cc1cc(Nc2cc(N3CCN(C)CC3)nc(/C=C/c3ccccc3)n2)n[nH]1.O=C(O)C(O)C(O)C(=O)O (library stock concentration (final ~1000-fold dilution): 10 mM),NF-kB SEAP reporter activity,[2]; agonist: LPS (TLR4) 0.1 ug/mL,0.407
same,NF-kB SEAP reporter activity,[2]; [6],0.191
same,NF-kB SEAP reporter activity,[2]; [7],0.297
same,NF-kB SEAP reporter activity,[2]; [8],0.279
Cc1cc(C)c(CNC(=O)c2cc(-c3ccc(CN4CCOCC4)cc3)cc3c2cnn3C2CCCC2)c(=O)[nH]1 (library stock concentration (final ~1000-fold dilution): 2 mM),NF-kB SEAP reporter activity,[2]; agonist: LPS (TLR4) 0.1 ug/mL,1.37
same,NF-kB SEAP reporter activity,[2]; [6],0.508
same,NF-kB SEAP reporter activity,[2]; [7],0.738
same,NF-kB SEAP reporter activity,[2]; [8],0.498
Cc1cc(C)c(CNC(=O)c2cc(-c3ccc(CN4CCOCC4)cc3)cc3c2cnn3C2CCCC2)c(=O)[nH]1,NF-kB SEAP reporter activity,"[1]; library stock concentration (final ~1000-fold dilution): 2 mM, cytotoxicity flag (confluency mask): not cytotoxic, agonist: Imiquimod (TLR7) […]",0.445
same,NF-kB SEAP reporter activity,"[1]; library stock concentration (final ~1000-fold dilution): 2 mM, cytotoxicity flag (confluency mask): not cytotoxic, agonist: MPLA (TLR4) […]",0.798
COc1ccc(Oc2cc(NCCC(F)(F)F)c3ncc(-c4ccc(C(=O)NC5CC5)c(C)c4)n3n2)c(F)c1F (library stock concentration (final ~1000-fold dilution): 10 mM),NF-kB SEAP reporter activity,[2]; agonist: LPS (TLR4) 0.1 ug/mL,2.44
same,NF-kB SEAP reporter activity,[2]; [6],1.78
same,NF-kB SEAP reporter activity,[2]; [7],0.636
same,NF-kB SEAP reporter activity,[2]; [8],0.913
COc1ccc(Oc2cc(NCCC(F)(F)F)c3ncc(-c4ccc(C(=O)NC5CC5)c(C)c4)n3n2)c(F)c1F,NF-kB SEAP reporter activity,[1]; [4],1.19
same,NF-kB SEAP reporter activity,[1]; [5],1.32
C[C@H]1[C@@H](O)O[C@@H]2OC3(C)CC[C@H]4[C@H](C)CC[C@@H]1[C@@]24OO3 (library stock concentration (final ~1000-fold dilution): 10 mM),NF-kB SEAP reporter activity,[2]; agonist: LPS (TLR4) 0.1 ug/mL,3.41
CC(C)c1cc2c(cc1S(=O)(=O)O)[C@@]1(C)CCC[C@@](C)(C(=O)O)[C@@H]1CC2 (library stock concentration (final ~1000-fold dilution): 10 mM),NF-kB SEAP reporter activity,[2]; agonist: LPS (TLR4) 0.1 ug/mL,1.11
same,NF-kB SEAP reporter activity,[2]; [6],1.11
same,NF-kB SEAP reporter activity,[2]; [7],1.2
same,NF-kB SEAP reporter activity,[2]; [8],1.04
CC(C)c1cc2c(cc1S(=O)(=O)O)[C@@]1(C)CCC[C@@](C)(C(=O)O)[C@@H]1CC2,NF-kB SEAP reporter activity,[1]; [4],0.747
same,NF-kB SEAP reporter activity,[1]; [5],1.02
Cc1ccccc1C(=O)Nc1ccc(C(=O)N2CCCC(O)c3cc(Cl)ccc32)c(C)c1 (stereo unspecified),NF-kB SEAP reporter activity,[1]; [4],1.23
same,NF-kB SEAP reporter activity,[1]; [5],0.983
Cc1ccccc1C(=O)Nc1ccc(C(=O)N2CCCC(O)c3cc(Cl)ccc32)c(C)c1 (stereo unspecified) (library stock concentration (final ~1000-fold dilution): 10 mM),NF-kB SEAP reporter activity,[2]; agonist: LPS (TLR4) 0.1 ug/mL,1.05
same,NF-kB SEAP reporter activity,[2]; [6],0.949
same,NF-kB SEAP reporter activity,[2]; [7],0.953
same,NF-kB SEAP reporter activity,[2]; [8],0.792
NC(=O)c1ccc(-c2nc(-c3ccc4c(c3)OCCO4)c(-c3ccccn3)[nH]2)cc1,NF-kB SEAP reporter activity,[1]; [4],0.743
same,NF-kB SEAP reporter activity,[1]; [5],1.45
NC(=O)c1ccc(-c2nc(-c3ccc4c(c3)OCCO4)c(-c3ccccn3)[nH]2)cc1 (library stock concentration (final ~1000-fold dilution): 10 mM),NF-kB SEAP reporter activity,[2]; agonist: LPS (TLR4) 0.1 ug/mL,1.81
same,NF-kB SEAP reporter activity,[2]; [6],1.29
same,NF-kB SEAP reporter activity,[2]; [7],1.25
same,NF-kB SEAP reporter activity,[2]; [8],0.913
CCC1=CC2CN(C1)Cc1c([nH]c3ccccc13)C(C(=O)OC)(c1cc3c(cc1OC)N(C)C1C(O)(C(=O)OC)C(OC(C)=O)C4(CC)C=CCN5CCC31C54)C2 (stereo unspecified),NF-kB SEAP reporter activity,"[1]; library stock concentration (final ~1000-fold dilution): 10 mM, cytotoxicity flag (confluency mask): cytotoxic (confluency <70% of control), agonist: Imiquimod (TLR7) […]",2.47
same,NF-kB SEAP reporter activity,"[1]; library stock concentration (final ~1000-fold dilution): 10 mM, cytotoxicity flag (confluency mask): cytotoxic (confluency <70% of control), agonist: MPLA (TLR4) […]",2.6
CCC1=CC2CN(C1)Cc1c([nH]c3ccccc13)C(C(=O)OC)(c1cc3c(cc1OC)N(C)C1C(O)(C(=O)OC)C(OC(C)=O)C4(CC)C=CCN5CCC31C54)C2 (stereo unspecified) (library stock concentration (final ~1000-fold dilution): 10 mM),NF-kB SEAP reporter activity,[3]; agonist: LPS (TLR4) 0.1 ug/mL,5.34
same,NF-kB SEAP reporter activity,[3]; [6],0.35
same,NF-kB SEAP reporter activity,[3]; [7],1.78
same,NF-kB SEAP reporter activity,[3]; [8],1.95
O=C(Nc1cccc(C(F)(F)F)c1)Nc1cc(S(=O)(=O)NC2CC2)ccc1-c1ccsc1,NF-kB SEAP reporter activity,[1]; [4],0.776
same,NF-kB SEAP reporter activity,[1]; [5],1.6
O=C(Nc1cccc(C(F)(F)F)c1)Nc1cc(S(=O)(=O)NC2CC2)ccc1-c1ccsc1 (library stock concentration (final ~1000-fold dilution): 10 mM),NF-kB SEAP reporter activity,[2]; agonist: LPS (TLR4) 0.1 ug/mL,2.39
same,NF-kB SEAP reporter activity,[2]; [6],0.786
same,NF-kB SEAP reporter activity,[2]; [7],0.284
same,NF-kB SEAP reporter activity,[2]; [8],0.284
Cl.c1ccc(CC2=NCCN2)cc1 (library stock concentration (final ~1000-fold dilution): 10 mM),NF-kB SEAP reporter activity,[2]; agonist: LPS (TLR4) 0.1 ug/mL,1.01
same,NF-kB SEAP reporter activity,[2]; [6],0.943
same,NF-kB SEAP reporter activity,[2]; [7],1.16
same,NF-kB SEAP reporter activity,[2]; [8],0.986
Cl.c1ccc(CC2=NCCN2)cc1,NF-kB SEAP reporter activity,[1]; [4],0.925
same,NF-kB SEAP reporter activity,[1]; [5],1.07
CC(C(=O)O)c1ccc2c(c1)[nH]c1ccc(Cl)cc12 (stereo unspecified) (library stock concentration (final ~1000-fold dilution): 10 mM),NF-kB SEAP reporter activity,[2]; agonist: LPS (TLR4) 0.1 ug/mL,1.23
same,NF-kB SEAP reporter activity,[2]; [6],0.976
same,NF-kB SEAP reporter activity,[2]; [7],1.01
same,NF-kB SEAP reporter activity,[2]; [8],1.16
CC(C(=O)O)c1ccc2c(c1)[nH]c1ccc(Cl)cc12 (stereo unspecified),NF-kB SEAP reporter activity,[1]; [4],0.918
same,NF-kB SEAP reporter activity,[1]; [5],1.01
CC(NC(=O)C(Cc1ccccc1)NC(=O)OCc1ccccc1)C(=O)CF (stereo unspecified) (library stock concentration (final ~1000-fold dilution): 10 mM),NF-kB SEAP reporter activity,[2]; agonist: LPS (TLR4) 0.1 ug/mL,0.757
same,NF-kB SEAP reporter activity,[2]; [6],0.63
same,NF-kB SEAP reporter activity,[2]; [7],0.927
same,NF-kB SEAP reporter activity,[2]; [8],0.807
CC(NC(=O)C(Cc1ccccc1)NC(=O)OCc1ccccc1)C(=O)CF (stereo unspecified),NF-kB SEAP reporter activity,[1]; [4],0.359
same,NF-kB SEAP reporter activity,[1]; [5],0.984
CC(C)(C)NC(=O)C1CCC2C3CCC4NC(=O)C=CC4(C)C3CCC12C (stereo unspecified) (library stock concentration (final ~1000-fold dilution): 10 mM),NF-kB SEAP reporter activity,[2]; agonist: LPS (TLR4) 0.1 ug/mL,0.988
same,NF-kB SEAP reporter activity,[2]; [6],0.946
same,NF-kB SEAP reporter activity,[2]; [7],0.943
same,NF-kB SEAP reporter activity,[2]; [8],0.998
CC(C)(C)NC(=O)C1CCC2C3CCC4NC(=O)C=CC4(C)C3CCC12C (stereo unspecified),NF-kB SEAP reporter activity,[1]; [4],0.218
same,NF-kB SEAP reporter activity,[1]; [5],1.07
CCCCCCCN(CC)CCCC(O)c1ccc(NS(C)(=O)=O)cc1.CCCCCCCN(CC)CCCC(O)c1ccc(NS(C)(=O)=O)cc1.O=C(O)/C=C/C(=O)O (stereo unspecified) (library stock concentration (final ~1000-fold dilution): 10 mM),NF-kB SEAP reporter activity,[2]; agonist: LPS (TLR4) 0.1 ug/mL,1.03
same,NF-kB SEAP reporter activity,[2]; [6],0.751
same,NF-kB SEAP reporter activity,[2]; [7],0.65
same,NF-kB SEAP reporter activity,[2]; [8],1.05
CCCCCCCN(CC)CCCC(O)c1ccc(NS(C)(=O)=O)cc1.CCCCCCCN(CC)CCCC(O)c1ccc(NS(C)(=O)=O)cc1.O=C(O)/C=C/C(=O)O (stereo unspecified),NF-kB SEAP reporter activity,[1]; [4],0.941
same,NF-kB SEAP reporter activity,[1]; [5],0.976
Br.NC(=O)C(c1ccccc1)(c1ccccc1)C1CCN(CCc2ccc3c(c2)CCO3)C1 (stereo unspecified) (library stock concentration (final ~1000-fold dilution): 10 mM),NF-kB SEAP reporter activity,[2]; agonist: LPS (TLR4) 0.1 ug/mL,0.967
same,NF-kB SEAP reporter activity,[2]; [6],0.467
same,NF-kB SEAP reporter activity,[2]; [7],0.82
same,NF-kB SEAP reporter activity,[2]; [8],0.919
Br.NC(=O)C(c1ccccc1)(c1ccccc1)C1CCN(CCc2ccc3c(c2)CCO3)C1 (stereo unspecified),NF-kB SEAP reporter activity,[1]; [4],1.02
same,NF-kB SEAP reporter activity,[1]; [5],0.984
Cc1cc(O)c2c(c1)C(=O)c1cccc(O)c1C2=O,NF-kB SEAP reporter activity,[1]; [4],0.753
same,NF-kB SEAP reporter activity,[1]; [5],1.06
Cc1cc(O)c2c(c1)C(=O)c1cccc(O)c1C2=O (library stock concentration (final ~1000-fold dilution): 10 mM),NF-kB SEAP reporter activity,[2]; agonist: LPS (TLR4) 0.1 ug/mL,1.16
same,NF-kB SEAP reporter activity,[2]; [6],0.905
same,NF-kB SEAP reporter activity,[2]; [7],0.858
same,NF-kB SEAP reporter activity,[2]; [8],0.921
